Test system: picrotoxin-binding site of the GABA-A receptor
Assay: Displacement of 35S-TBPS from brain membranes
Parameters: species or system rats
Settings: not given

O=C1CCC(C2c3ccccc3CCN2S(=O)(=O)c2ccc(C(F)(F)F)cc2)O1 (mixture of isomers) [Compound 70] and O=C1CCC(C2c3ccccc3CCN2S(=O)(=O)c2ccc(OC(F)(F)F)cc2)O1 (mixture of isomers) [Compound 71] are the same in “Inhibition of the tritiated ligands % TBPS (100 μM)” value: 0% for the first, 0% for the second.

First: COc1cc2c(cc1OC)C(C1CCC(=O)O1)N(C)CC2 (racemic) [Compound 28]
Second: COc1cc2c(cc1OC)[C@H]([C@@H]1C=C(C)C(=O)O1)N(C)CC2 (racemic) [Compound 30b]
The “Inhibition of the tritiated ligands % TBPS (100 μM)” value of the first is higher: 9% for the first, 0% for the second.

Compared with COc1cc2c(cc1OC)C(C1C=CC(=O)O1)NCC2 (racemic) [Compound 42], COc1cc2c(cc1OC)[C@H]([C@@H]1CCC(=O)O1)N(C(=O)OCc1ccccc1)CC2 (racemic) [Compound 49] is higher in “Inhibition of the tritiated ligands % TBPS (100 μM)” value: 0% for the first, 45% for the second.

Going from CC1=C[C@@H]([C@H]2c3cc4c(cc3CCN2C)OCO4)OC1=O (racemic) [Compound 43] to O=C1C=CC(C2c3cc4c(cc3CCN2C(=O)OCc2ccccc2)OCO4)O1 (racemic) [Compound 44], the “Inhibition of the tritiated ligands % TBPS (100 μM)” value falls from 50% to 25%.

Compared with O=C1C=CC(C2c3ccccc3CCN2C(=O)c2ccccc2)O1 (racemic) [Compound 60], Cc1ccc(S(=O)(=O)N2CCc3ccccc3C2[C@H]2CCC(=O)O2)cc1 (mixture of isomers) [Compound 67, (±)-(1R,2′R)-1-(2,3,4,5-Tetrahydro-5-oxo-2-furyl)-2-N-p-toluenesulfonyl-1,2,3,4-tetrahydroisoquinoline] is lower in “Inhibition of the tritiated ligands % TBPS (100 μM)” value: 25% for the first, 15% for the second.

For Cc1ccc(S(=O)(=O)N2C=Cc3ccccc3C2[C@H]2CCC(=O)O2)cc1 (mixture of isomers) [Compound 76, (±)-(1R,2′R)-2-N-Tosyl-1-(2,3,4,5-tetrahydro-5-oxo-2-furyl)-1,2-dihydroisoquinoline], the “Inhibition of the tritiated ligands % TBPS (100 μM)” value was 20%.

With COc1cc2c(cc1OC)[C@H]([C@@H]1CCC(=O)O1)NCC2 (racemic) [Compound 27b, (±)-Threo-6,7-dimethoxy-1-(2,3,4,5-tetrahydro-5-oxo-2-furyl)-1,2,3,4-tetrahydroisoquinoline] the “Inhibition of the tritiated ligands % TBPS (100 μM)” value was “negligible”.
For O=C1C=C[C@H]([C@H]2c3ccccc3CCN2C(=S)Oc2ccccc2)O1 (racemic) [Compound 63], the “Inhibition of the tritiated ligands % TBPS (100 μM)” value was “perhaps stimulation”.

Same assay, conditions: 100 μM; brain of rats

For O=C1CCC(C2c3ccccc3CCN2C(=O)OCc2ccccc2)O1 (racemic) [Compound 54, (±)-(1R,2′R)-2-N-Benzyloxycarbonyl-1-(2,3,4,5-tetrahydro-5-oxo-2-furyl)-1,2,3,4-tetrahydroisoquinoline], the “influence on the GABA inhibition of the TBPS bindings” value was “does not influence the GABA inhibition of the TBPS bindings”.
